# Screen size: about 420,000 compounds; about 50,000 (12%) were called active. The shares of active, inactive and inconclusive entries below differ from those in the screen. Calls come from the whole dose curve; as a rule, active = well fitted inhibition curve with a large enough effect; inconclusive = small, poorly fitted or top-dose-only effect; inactive = flat fitted curve, though single readings scatter. No potency is given beside an inconclusive call; the fits are too rough.
# Assay: qHTS for Inhibitors of human tyrosyl-DNA phosphodiesterase 1 (TDP1): qHTS in cells in presence of CPT; note: nearly all actives have a fitted effect of over 55% in size
# Conditions: chicken DT40 Tdp1-/-;hTDP1 cells + 20 nM CPT, ATP luminescence, 48 h; activity change, negative = growth inhibition: at 46.2 µM (top of the series) unless noted
# Summary of the method: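 Cell growth measured by CellTiter-Glo luminescence after a minimum 48 h, 37 C compound exposure with 20 nM CPT in Tdp1-knockout DT40 cells stably expressing hTDP1, seeded 400/well; qHTS titration format.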
# % is set by controls: 0 for no effect and ±100 for the full control effect; potency is the fitted concentration of half-maximal effect; tags give direction and shape of the fitted curve.
Compound,"activity change, negative = growth inhibition",Potency
O=C(O)CCCc1ccc2c(c1)CCc1ccccc1-2,inconclusive: -37.3% [inhibitor],–
COc1ccc(C(=O)CSc2nc3cccnc3n2C)cc1,–,"inconclusive [inhibitor, partial curve]"
CC(C)N(C(=O)c1ccccc1-c1ccccc1)C(C)C,–,"inconclusive [inhibitor, single point]"
O=C(C1CCC1)N1CCN(c2ccccc2)CC1,–,inactive
CCOc1ccc(-c2ccc(NS(=O)(=O)c3cc(C)ccc3OC)cc2)nn1,–,active: 13 µM
CC1(C)CC(NC(=O)c2ccc(-c3ccc([N+](=O)[O-])cc3)o2)CC(C)(C)N1,–,"inconclusive [inhibitor, partial curve]"
COc1ccc(C(C)NC(=S)NCc2ccc(F)cc2)cc1 (stereo not given),–,active: 18.4 µM
O=C(CC1N=C2c3ccccc3N=C(SCc3ccccc3Cl)N2C1=O)NC1CCCCC1 (stereo not given),–,active: 9.2 µM
Cc1noc(C)c1CSc1nnc(-c2ccccc2F)n1CCc1ccccc1,–,active: 18.4 µM
COCCn1c(SCC(=O)Nc2cc(C(C)(C)C)nn2-c2ccccc2)nnc1-c1ccncc1,–,inactive
CCN1C(c2ccccc2)C(C)C(=O)C(C)C1c1ccccc1 (stereo not given),–,"inconclusive [inhibitor, single point]"
CCOc1cc(CNC(C)(C)CO)cc(Br)c1OCc1ccc(Cl)cc1Cl,–,active: 20.6 µM
COc1ccc(C(=O)NC=C2C(=O)OC(C)(C)OC2=O)cc1,–,inactive
C#CCN(CC(=O)OCC)S(=O)(=O)CCNC1CC1,–,inactive
COc1ccc(C(C(=O)NC2CCCCC2)N(C(=O)Cc2c[nH]c3ccccc23)c2ccccc2C)cc1OC (stereo not given),–,"inconclusive [inhibitor, single point]"
CCN1CCN(CC(=O)c2c[nH]c3ccc(C)cc23)CC1,–,inactive
CCOC(=O)[C@]12CCC=C1N(Cc1ccc3c(c1)OCO3)C(=O)[C@H](CC(=O)NCc1cccc(C(F)(F)F)c1)C2,–,active: 20.6 µM
CC1CCC(NC(=O)C2CCN(S(=O)(=O)c3cccc4nonc34)CC2)CC1 (stereo not given),–,inactive
CCOC(=O)N1CCN(C(=O)COc2ccc(Br)cc2)CC1,–,"inconclusive [inhibitor, partial curve]"
CCCCCCCCCCCCCC(=O)NO,–,"inconclusive [inhibitor, single point]"
Cc1c(NC(=O)CSc2nnc(N)s2)c(=O)n(-c2ccccc2)n1C,–,inactive
COc1ccc(NC(=O)c2oc3ccccc3c2NC(=O)Cc2ccc(F)cc2)c(OC)c1,–,active: 11.6 µM
N#C/C(=C\c1ccc(O)cc1)C(=O)N1CCCC1,–,inactive
COc1cc(/C=N/NC(=O)c2ccc(N3CCCC3=O)cc2)ccc1O,–,"inconclusive [inhibitor, single point]"
C/C(=N\NC(=O)C(=O)Nc1cccc(Cl)c1)c1ccncc1,–,active: 11.6 µM

Compound,"activity change, negative = growth inhibition",Potency
C=CCOc1nc2c(c(=O)n(C)c(=O)n2C)n1Cc1c(Cl)cccc1Cl,–,"inconclusive [inhibitor, single point]"
CCOC(=O)Cc1csc(N/N=C/c2ccc(Cl)cc2)n1,–,inactive
CCN(CC(=O)NCc1ccc(Cl)cc1)C(=O)CCOc1ccccc1C,–,"inconclusive [inhibitor, single point]"
COc1ccc(CCNC(=O)c2ccccc2C(=O)NCCc2ccc(OC)cc2)cc1,–,inactive
Cc1ccc(C(=O)Nc2cccc(C(F)(F)F)c2)cc1Nc1ccccn1,–,active: 20.6 µM
O=C(Nc1ccccc1)N1CCCN(Cc2ccccc2F)C1,–,"inconclusive [inhibitor, single point]"
C=CCC1(O)CC(c2ccco2)NC(c2ccco2)C1CCC (stereo not given),–,inactive
CCOc1ccc2oc(-c3ccccc3)c(C(=O)N3CCN(CCO)CC3)c2c1,–,inactive
CC1CCN(S(=O)(=O)c2ccc3c(c2)N(CC(=O)Nc2ccc(F)c(Cl)c2)C(=O)CO3)CC1,–,active: 23.1 µM
O=C(Nc1cc(Cl)ccc1C(=O)O)c1ccc(CN2C(=O)c3ccccc3C2=O)cc1,–,inactive
O=C(C1=COCCO1)N(Cc1nnc(-c2ccccc2Cl)o1)C1CC1,–,"inconclusive [inhibitor, single point]"
Clc1ccc(Cn2ncc3c(N4CCCCC4)ncnc32)c(Cl)c1,–,active: 23.1 µM
O=S(Cc1cc(Sc2ccccc2)nc(-c2ccccc2)n1)c1ccccc1 (stereo not given),–,"inconclusive [inhibitor, single point]"
COc1ccc(NC(=O)CN(C)C(=O)c2ccc3c(c2)CC(c2ccccc2)OC3=O)cc1 (stereo not given),–,active: 25.9 µM
COc1cc(C(=O)OC(C)C(=O)NCC2CCCCC2)cc(NC(=O)c2ccco2)c1OC (stereo not given),–,"inconclusive [inhibitor, single point]"
COc1ccc(Br)cc1CNC(=O)CCSCc1ccc(Cl)cc1,–,"inconclusive [inhibitor, partial curve]"
CCN(Cc1ccc2c(c1)OCO2)C(=O)CSc1ncnc2sccc12,–,"inconclusive [inhibitor, single point]"
O=c1c(Cc2ccc(F)cc2)c(O)ccn1Cc1cccc(Cl)c1,–,"inconclusive [inhibitor, partial curve, poor fit]"
COc1ccc(C(=O)C2CCCN(C(=O)/C=C/c3cnc[nH]3)C2)c(C)c1 (stereo not given),–,inactive
NC(=O)NC(=O)COC(=O)CNS(=O)(=O)c1ccc(F)c(F)c1F,–,inactive
O=C(Cc1ccc(Cl)cc1)NO,inconclusive: -31% [inhibitor],–
c1ccc(Cn2nnnc2C(c2cccs2)N2CCc3ccccc3C2)cc1 (stereo not given),–,"inconclusive [inhibitor, single point]"
CC1(C)Oc2ccc(C(=O)NC3CCCCC3)cc2N(CC#N)C1=O,–,inactive
CN(C)c1ccc(-c2nnn(CC(=O)N3c4ccccc4CCc4ccccc43)n2)cc1,–,"inconclusive [inhibitor, single point]"
CN1CCN(C(=O)c2ccccc2-c2nc(-c3ccc(Cl)cc3)no2)CC1,–,"inconclusive [inhibitor, single point]"

# Reference: PubChem BioAssay AID686979 (National Center for Advancing Translational Sciences (NCATS), 2013)
